Source: ChEMBL document CHEMBL1156829
In all, about 5,400 compounds were measured (“IFI”: median about 2, highest 2% from about 22 on). This is one part of the list.

Assay: NOVARTIS: Inhibition Frequency Index (IFI) - the number of HTS assays where a compound showed > 50% inhibition/induction, expressed as a percentage of the number of assays in which the compound was tested.
Format: functional

In order of falling IFI:
1. c1ccc(CSc2scnc2[P+](c2ccccc2)(c2ccccc2)c2ccccc2)cc1  27.8%
2. CC[n+]1c(/C=C/C=C2\N(C)c3ccccc3C2(C)C)n(-c2ccccc2)c2ccc(Cl)cc21  21.4%
3. Fc1cccc2sc(Nc3nc(-c4ccccn4)cs3)nc12  16.7%
4. CCCCCc1ccc(-c2ccc(/C(C=[N+](C)C)=C\N(C)C)cc2)cc1  14.3%
5. Fc1ccc2[nH]c3c(N4CCN(C(c5ccccc5)c5ccccc5)CC4)ncnc3c2c1  14%
6. CCC(=O)CC(O)C[C@@H](C)C[C@H](NC(=O)[C@@H]1C[C@H](C)CN1C(=O)/C=C/[C@@H](C)CC)C(=O)N[C@H](C(=O)NC(C)(C)C(=O)N[C@@H](CC(C)C)C(=O)N[C@@H](CC(C)C)C(=O)NC(C)(C)C(=O)NC(C)(C)C(=O)NCCC(=O)N[C@@H](C)CN(C)C)[C@H](O)C(C)C (stereo partly specified)  12.1%
7. COc1ccc(Nc2nc(NCc3ccco3)c3ccccc3n2)cc1  12%
8. COC1C(OC2OC(C)C(O)C(C)(O)C2OC)c2c(cc3c(c2O)C(=O)c2c(ccc4c2OC2OC4(C)C(OC4CC(C)([N+](=O)[O-])C(OC5OC(C)C(O)C(C)(O)C5OC)C(C)O4)C(N(C)C)C2O)C3=O)CC1(C)O (stereo unspecified)  10.5%
9. COc1cccc(NC(=O)c2ccc3oc(=O)c(S(=O)(=O)c4ccccc4)cc3c2)c1  9.09%
10. CCCCC(=O)NC(c1cccc([N+](=O)[O-])c1)c1ccc2cccnc2c1O (stereo unspecified)  8.33%
11. NC12CC3CC(C1)CC(SSC14CC5CC(CC(N)(C5)C1)C4)(C3)C2  8.2%
12. O=C(Nc1ccc(-c2cn3cccnc3n2)cc1)c1ccccc1I  7.69%
13. COc1ccc(-c2ncc([C@@H]3C[C@H]4CN(c5ccccc5)C(=O)[C@]45CCCN35)cn2)cc1  7.69%
14. CN(c1ccccc1)S(=O)(=O)c1ccc(C(=O)Nc2ccc(-c3nc4ccccc4[nH]3)cc2)cc1  7.69%
15. OC(CN1CCN(Cc2ccccc2)CC1)Cn1c2ccc(I)cc2c2cc(I)ccc21 (stereo unspecified)  7.55%
16. CCCCCc1ccc(C(=O)N(C)CCCNc2ccnc3cc(Cl)ccc23)cc1  7.48%
17. COc1ccc(Nc2nc3nonc3nc2NN=Cc2cc(Cl)ccc2O)cc1  7.14%
18. OC(CNC1CCCCC1)Cn1c2ccc(Cl)cc2c2cc(Cl)ccc21 (stereo unspecified)  6.98%
19. O=[N+]([O-])c1ccc(C=NNc2nc(Nc3ccccc3)nc(Nc3ccccc3)n2)o1  6.47%
20. CC1=C(C(=O)OC2CCCCC2)C(c2ccc(Cl)c(Cl)c2)C2=C(CCCC2=O)N1 (stereo unspecified)  5.75%
21. C[n+]1ccc(/C=C/c2ccc(Br)cc2)cc1  5.46%
22. CCc1nc2ccc(NC(=O)c3ccncc3)cc2c(=O)n1Cc1cccc(OC)c1  5.13%
23. Clc1ccc(-c2c[n+](CCc3ccccc3)c3n2CCC3)cc1  5%
24. CCOC(=O)C1=CN(c2cc(C)ccc2C)C=C(C(=O)OCC)C1c1ccccc1OC  4.94%
25. COC(=O)C1=C(C)NC2=C(C(=O)CC(c3ccc(OC)c(OC)c3)C2)C1c1ccc(Br)cc1 (stereo unspecified)  4.88%
26. CCN(CC)S(=O)(=O)c1ccc(-c2csc(Nc3ccc(C)c(C)c3)n2)cc1  4.71%
27. COc1ccc(C2CC(=O)C3=C(C2)NC(C)=C(C(=O)OC(C)C)C3c2ccc([N+](=O)[O-])cc2)cc1OC (stereo unspecified)  4.3%
28. Cc1nc(-c2nc3c(s2)CN(C(=O)COc2ccc(Cl)cc2)CC3)cs1  4.17%
29. Cc1onc(-c2ccccc2)c1C(=O)N1CCC(CNc2c(-c3ccoc3)nc3ccccn23)CC1  4.17%
30. O=C(CSc1ccccc1)NCCCCNc1ccnc2cc(Cl)ccc12  3.74%
31. C/N=C(\N)Nc1nc(C)c2cc(OC)ccc2n1  3.62%
32. COc1ccc(CN(Cc2cc3cccc(C)c3[nH]c2=O)C(=S)NC2CCCCC2)cc1  3.6%
33. Cc1nn(CC(O)Cn2c3ccc(Br)cc3c3cc(Br)ccc32)c(C)c1Br (stereo unspecified)  3.49%
34. COc1ccc(CN(Cc2cc3cccc(C)c3nc2N2CCCC(O)C2)C(=O)c2ccc(OC)c(OC)c2)cc1 (stereo unspecified)  2.94%
35. COc1ccc(-n2c(COc3cccc4ccccc34)nnc2SC)cc1  2.83%
36. CCOC(=O)C1=C(C)NC2=C(C(=O)CC(c3ccc(OC)c(OC)c3)C2)C1c1ccccc1F (stereo unspecified)  2.35%
37. O=C(/C=C/c1ccccc1)NNC(=O)c1cccnc1  2.24%
38. CCCCCN(CC(=O)Nc1cc(C(C)(C)C)nn1-c1ccc(Cl)c(Cl)c1)C(=O)c1cccc(OC)c1  1.89%
39. CCC1(C)CC(CCNCc2ccccc2O)(c2ccc(OC)cc2)CCO1 (stereo unspecified)  1.89%
40. CN(CCCNc1ccnc2cc(Cl)ccc12)C(=O)c1ccc(Cl)c(Cl)c1  1.87%
41. COc1cccc(-c2ccc(O)c(CN3CCCCC3)c2)n1  1.72%
42. Clc1ccc2c(N3CCC(n4cccc4)CC3)ccnc2c1  1.68%
43. Cn1nc(-c2ccccc2)c2c(C(=O)C(F)(F)F)cc(C(=O)C(F)(F)F)c-2c1-c1ccccc1  1.54%
44. CCCN(CCC)CC(O)COc1ccccc1C(=O)Nc1ccccc1 (stereo unspecified)  1.51%
45. O=C(NCc1ccco1)c1ccc(OC2CCN(Cc3ccncc3)CC2)c(Cl)c1  1.39%
46. O=C1N(Cc2cc3ccccc3s2)CC2CN(Cc3ccc(F)c(F)c3)CCN12 (stereo unspecified)  1.39%
47. COCCOC(=O)NCc1ccc(Nc2c(C(C)(C)C)nc3cnccn23)cc1  1.37%
48. CC(=O)c1cccc(NC(=O)NC2CC3CCCC(C2)N3CCc2ccccc2)c1 (stereo unspecified)  1.27%
49. COc1cc(O)c2c(=O)cc(CCOC(=O)Nc3ccccc3)[nH]c2c1  1.22%
50. CCOc1ccc(NC(=O)C(C)CSc2nc3ccc(NC(=O)CC)cc3s2)cc1 (stereo unspecified)  1.18%
51. COc1ccc(C(OCC(=O)N2CCN(Cc3ccccc3)CC2)c2ccccc2)cn1 (stereo unspecified)  0.971%
52. OC(CN1CCOCC1)Cn1cnc2c(SCc3ccccc3)ncnc21 (stereo unspecified)  0%
53. COC(=O)c1ccc(Nc2nc(NCc3ccco3)c3ccccc3n2)cc1  0%
54. Cc1cc(/C=C2/SC(=Nc3ccccc3)NC2=O)c(C)n1-c1cccc([N+](=O)[O-])c1  0%
55. O=C1C(NC2CCCC2)=C(N2CCOCC2)C(=O)c2ccccc21  0%
56. CC1CCN(C(=O)CSc2nc(NCc3ccccc3)c3ccccc3n2)CC1  0%
57. O=C1CC(N2CCCCCC2)C(=O)N1c1ccc(N2C(=O)CC(N3CCCCCC3)C2=O)cc1 (stereo unspecified)  0%
58. O=C1C2C(C(=O)N1c1cccc3ccccc13)C1C=CC2C12CC2 (stereo unspecified)  0%
59. Cc1nc2cc(-c3ccc(Br)cc3)nn2c(O)c1C  0%
60. O=C(NCCCN1CCOCC1)c1c[nH]c2ccc(S(=O)(=O)N3CCc4ccccc43)cc2c1=O  0%
61. CC(=O)N(C1=C(N2CCCC2)C(=O)c2ccccc2C1=O)c1ccc(F)c(F)c1  0%
62. O=C1OC(c2ccccc2)=NC1=C(Cl)Cl  0%
63. Cc1cc(C)cc(NC2=C(c3ccccc3)C(=O)c3ccccc32)c1  0%
64. COc1ccc(CN2CC(=O)N(c3ccc(Cl)cc3)C2=S)cc1OC  0%
65. CN(C)c1ccc(N2C(N)=NC(N)=NC2(C)C)cc1  0%
66. Oc1ccc(Br)cc1CN1CCN(c2ccccn2)CC1  0%
67. COc1ccc(-c2noc(-c3cccc(I)c3)n2)cc1OC  0%
68. COc1ccc(C2SCCN2S(=O)(=O)c2cccc([N+](=O)[O-])c2)cc1OC (stereo unspecified)  0%
69. COc1ccc(OC)c(C2CC(=O)C3=C(C2)NC(=O)CC3c2ccc(OC)c(OC)c2)c1 (stereo unspecified)  0%
70. O=C(CN1CCCC1)Nc1c2c(nc3c1CCC3)CCC2  0%
71. COc1cccc(NC(=O)C2C3C=CC4(O3)C2C(=O)N(Cc2ccc3c(c2)OCO3)C4C(=O)NC2CCCCC2C)c1 (stereo unspecified)  0%
72. CC1CC2=C(CC1CNCCCN(C)C)C(C)(C)CCC2 (stereo unspecified)  0%
73. CC1CCCC(NC(=O)C2N(CCN3CCCCC3C)C(=O)C3C(C(=O)Nc4cccc(Cl)c4)C4C=CC32O4)C1C (stereo unspecified)  0%
74. CCOC(=O)C[n+]1cc(CC)sc1N  0%
75. c1cncc(-c2cc(NCCCN3CCOCC3)nc(-c3ccncc3)n2)c1  0%
76. Oc1c2c(nc3cc(-c4ccc(-c5ccccc5)cc4)nn13)CCCC2  0%
77. O=C(NCCc1ccccc1)C1CCC(Cn2c(=S)[nH]c3ccccc3c2=O)CC1 (stereo unspecified)  0%
78. CN(C)c1cc[n+](CC(=O)c2ccc(Br)cc2)cc1  0%
79. COc1ccc(S(=O)(=O)N2CCN(C(=S)NC3CCCCC3)CC2)cc1  0%
80. CCOc1ccc(C(=O)C[N+]2=C(C)c3ccc(C)n3CC2)cc1  0%
81. CCOC(=O)C1=C(C)N=c2sc(=Cc3c4ccccc4cc4ccccc34)c(=O)n2C1c1cc(OC)ccc1OC (stereo unspecified)  0%
82. COc1cccc(NC(=O)c2sc3ncn(CC(=O)N4CCN(c5ccccn5)CC4)c(=O)c3c2C)c1  0%
83. Cc1n[nH]c2c1C(c1ccc([N+](=O)[O-])cc1)N(c1ccc(Br)cc1)C2=O (stereo unspecified)  0%
84. CN(Cc1ccsc1)C(=O)CCc1nnc(CCCc2ccccc2)o1  0%
85. CC1=C(C(=O)OC(C)C)C(c2ccc([N+](=O)[O-])cc2)C2=C(CC(C)(C)CC2=O)N1 (stereo unspecified)  0%
86. CC(C)OC(=O)c1cccnc1SCC(=O)Nc1ccc(C(F)(F)F)cc1Cl  0%
87. Cc1ccc(Nc2nc(NCCO)c3ccccc3n2)cc1C  0%
88. COc1ccccc1NC(=S)N1CCN(c2ccc([N+](=O)[O-])cc2)CC1  0%
89. COc1ccccc1C(c1c(C)n[nH]c1O)c1c(C)n[nH]c1O  0%
90. N[C@@H](COP(=O)(O)O)C(=O)O  0%
91. COc1ccc(C2C(C(N)=O)=C(C)Nc3ncnn32)cc1OC (stereo unspecified)  0%
92. Cc1nc2c(C#N)c(C)nn2c(C)c1Cc1cccc(F)c1  0%
93. Cc1cc(Cl)c(S(=O)(=O)N2CCCC2)cc1OCC(=O)NC1CCCCC1  0%
94. COc1cc(C=NNc2nc3ccccc3[nH]2)cc(OC)c1OC  0%
95. COc1ccc(NC(=O)CCn2c(=S)oc3ccccc32)c([N+](=O)[O-])c1  0%
96. CC(C)(C)OC(=O)NCC(=O)Oc1cc2oc(=O)cc(-c3ccccc3)c2cc1Cl  0%
